From patent publication US11434289B2, “Anti-GPR20 antibody and anti-GPR20 antibody-drug conjugate” (DAIICHI SANKYO COMPANY, LIMITED, priority 2017, dated 2022)

Key:
GIST-T1/GPR20 cells [1] = assay: In vitro cell proliferation-suppressive activity of ADC (CellTiter-Glo); format: cell-based, human; details: 0.032 to 100 nM, culture for 7 to 11 days; FIG. 26, FIG. 27
GIST-T1/GPR20 cells [2] = assay: Antitumor effect in subcutaneously GIST-T1/GPR20 cell-transplanted nude mouse models; format: in vivo, BALB/c nude mice
[3] = test system: human gastrointestinal stromal tumor cell line GIST430; assay: Antitumor effect in subcutaneously GIST430 cell-transplanted nude mouse models; format: in vivo, BALB/c nude mice; details: 10 mg/kg intravenously on Days 29, 36 and 43; compared with control group; FIG. 29
human GPR20 = target: T1, human GPR20 (Homo sapiens, UniProt Q99678); assay: Binding activity of humanized anti-GPR20 antibodies and antibody-drug conjugates by flow cytometry; details: 293T cells transfected with pcDNA3.1-hGPR20; FIG. 25
T1 construct: expressed in transfected cells; host or cells: 293T cells, transient, Lipofectamine 2000
T1 sequence (Q99678 1-358): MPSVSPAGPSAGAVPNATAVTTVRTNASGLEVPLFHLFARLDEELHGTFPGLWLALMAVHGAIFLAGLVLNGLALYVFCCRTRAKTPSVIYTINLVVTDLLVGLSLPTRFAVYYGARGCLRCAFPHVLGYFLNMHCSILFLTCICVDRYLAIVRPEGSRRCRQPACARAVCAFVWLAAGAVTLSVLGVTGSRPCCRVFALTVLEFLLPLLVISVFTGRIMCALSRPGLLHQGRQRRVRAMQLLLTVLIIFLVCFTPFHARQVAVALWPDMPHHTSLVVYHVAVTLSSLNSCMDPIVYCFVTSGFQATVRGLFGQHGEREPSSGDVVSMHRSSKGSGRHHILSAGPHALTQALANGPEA

GIST020 = assay: Antitumor effect in subcutaneously GIST020-transplanted nude mouse models; format: in vivo, BALB/c nude mice; details: 10 mg/kg intravenously on Days 55 and 75; compared with control group; FIG. 33
[4] = test system: stomach cancer cell line NCI-N87; assay: Antitumor effect in subcutaneously NCI-N87 cell-transplanted nude mouse models (no GPR20 expression); format: in vivo, BALB/c nude mice; details: 3 or 10 mg/kg intravenously on Day 6; FIG. 35
GIST074 = assay: Antitumor effect in subcutaneously GIST074-transplanted nude mouse models (regorafenib-unresponsive patient tumor); format: in vivo, BALB/c nude mice; details: 10 mg/kg intravenously on Days 29 and 50; FIG. 36
Experimental: The antitumor effects of the antibody-drug conjugates were evaluated using animal models derived from immunodeficient mice by the transplantation of human gastrointestinal stromal tumor-derived cells. Five- to 6-week-old female BALB/c nude mice (CAnN.Cg-Foxnlnu/CrlCrlj, Charles River Laboratories Japan Inc.) were acclimatized for 4 to 7 days under SPF conditions before use in the experiment. The mice were fed with a sterilized solid diet (FR-2, Funabashi Farms Co., Ltd) and given sterilized tap water (which had been prepared by adding a 5 to 15 ppm sodium hypochlorite solution to tap water). The longest diameter and the shortest diameter of the transplanted tumor were measured once or twice a week using electronic digital calipers (CD-15CX, Mitutoyo Corp.), and the volume of the tumor was then calculated according to the following equation. Tumor volume (mm^3)=½×Longest diameter (mm)×[Shortest diameter (mm)]^2
[…] ABS buffer was administered in the same manner as above to a control group (vehicle group). Five or six mice per group were used in the experiment. […]

GIST1 = assay: Antitumor effect in subcutaneously GIST1-transplanted nude mouse models; format: in vivo, BALB/c nude mice; details: 3 or 10 mg/kg intravenously on Days 38 and 59; compared with control group; FIG. 34

B1: antibody-drug conjugate (1): antibody-drug conjugate produced from human chimeric antibody 04-046Ch; average number of conjugated drug molecules 5.6 (conjugate)
heavy: QVQLQQSGAELAKPGSSVKISCKASGYTFTSYYISWIKQTTGQGLKYIGFINPGSGHTNYNEKFKGKATLTVDKSSSTAFMQLSSLTPDDSAIYYCARGAGGFLRIITKFDYWGQGVMVTVSSASTKGPSVFPLAPSSKSTSGGTAALGCLVKDYFPEPVTVSWNSGALTSGVHTFPAVLQSSGLYSLSSVVTVPSSSLGTQTYICNVNHKPSNTKVDKRV[letters of human IgG1 Fc omitted]
light: DTVLTQSPALAVSLGQRVTISCRASKSVSTYIHWYQQRSGQQPKLLIYSASNLESGVPSRFSGSGSGTDFTLTIDPVEPDDIANYYCQQINELPYTFGAGTKLELKRAVAAPSVFIFPPSDEQLKSGTASVVCLLNNFYPREAKVQWKVDNALQSGNSQESVTEQDSKDSTYSLSSTLTLSKADYEKHKVYACEVTHQGLSSPVTKSFNRGEC
cell proliferation-suppressive activity (number of live cells, ATP) (GIST-T1/GPR20 cells [1]): concentration-dependent cell proliferation-suppressive activity
tumor volume (GIST-T1/GPR20 cells [2]; 10 mg/kg intravenously on Day 14, FIG. 28): remarkably decreased tumor volume
tumor volume [3]: remarkably decreased tumor volume

B2: antibody-drug conjugate (4): antibody-drug conjugate produced from h046-H4b/L7, larger batch; n 7.4 by common procedure F (conjugate)
heavy: QVQLVQSGAEVKKPGASVKVSCKASGYTFTSYYISWIRQAPGQGLKYMGFINPGSGHTNYNEKFKGRVTITADKSSSTATMELSSLRSEDTAVYYCARGAGGFLRIITKFDYWGQGTLVTVSSASTKGPSVFPLAPSSKSTSGGTAALGCLVKDYFPEPVTVSWNSGALTSGVHTFPAVLQSSGLYSLSSVVTVPSSSLGTQTYICNVNHKPSNTKVDKRV[letters of human IgG1 Fc omitted]
light: DTQLTQSPSSLSASVGDRVTITCRASKSVSTYIHWYQQKPGKQPKLLIYSAGNLESGVPSRFSGSGSGTDFTLTISSLQPEDFANYYCQQINELPYTFGQGTKVEIKRTVAAPSVFIFPPSDEQLKSGTASVVCLLNNFYPREAKVQWKVDNALQSGNSQESVTEQDSKDSTYSLSSTLTLSKADYEKHKVYACEVTHQGLSSPVTKSFNRGEC
amount of the antibody bound based on MFI (human GPR20): increased in a concentration-dependent manner
tumor volume (GIST020): remarkably decreased tumor volume

B3: antibody-drug conjugate (14): antibody-drug conjugate produced from h046-H4e/L7; n 7.6 by common procedure F (conjugate)
heavy: EVQLVQSGAEVKKPGASVKVSCKASGYTFTSYYISWIRQAPGQGLKYMGFINPGSGHTNYNEKFKGRVTITADKSSSTATMELSSLRSEDTAVYYCARGAGGFLRIITKFDYWGQGTLVTVSSASTKGPSVFPLAPSSKSTSGGTAALGCLVKDYFPEPVTVSWNSGALTSGVHTFPAVLQSSGLYSLSSVVTVPSSSLGTQTYICNVNHKPSNTKVDKRV[letters of human IgG1 Fc omitted]
light: DTQLTQSPSSLSASVGDRVTITCRASKSVSTYIHWYQQKPGKQPKLLIYSAGNLESGVPSRFSGSGSGTDFTLTISSLQPEDFANYYCQQINELPYTFGQGTKVEIKRTVAAPSVFIFPPSDEQLKSGTASVVCLLNNFYPREAKVQWKVDNALQSGNSQESVTEQDSKDSTYSLSSTLTLSKADYEKHKVYACEVTHQGLSSPVTKSFNRGEC
tumor growth-suppressive effect [4]: no significant tumor growth-suppressive effect
tumor growth (GIST074): completely suppressed tumor growth

B4: antibody-drug conjugate (13): antibody-drug conjugate produced from h046-H4e/L7; n 7.7 by common procedure F (conjugate)
heavy: EVQLVQSGAEVKKPGASVKVSCKASGYTFTSYYISWIRQAPGQGLKYMGFINPGSGHTNYNEKFKGRVTITADKSSSTATMELSSLRSEDTAVYYCARGAGGFLRIITKFDYWGQGTLVTVSSASTKGPSVFPLAPSSKSTSGGTAALGCLVKDYFPEPVTVSWNSGALTSGVHTFPAVLQSSGLYSLSSVVTVPSSSLGTQTYICNVNHKPSNTKVDKRV[letters of human IgG1 Fc omitted]
light: DTQLTQSPSSLSASVGDRVTITCRASKSVSTYIHWYQQKPGKQPKLLIYSAGNLESGVPSRFSGSGSGTDFTLTISSLQPEDFANYYCQQINELPYTFGQGTKVEIKRTVAAPSVFIFPPSDEQLKSGTASVVCLLNNFYPREAKVQWKVDNALQSGNSQESVTEQDSKDSTYSLSSTLTLSKADYEKHKVYACEVTHQGLSSPVTKSFNRGEC
amount of the antibody bound based on MFI (human GPR20): increased in a concentration-dependent manner
tumor volume (GIST-T1/GPR20 cells [2]; 0.3, 1, or 3 mg/kg intravenously on Day 17, FIG. 32): decreased tumor volume in a dose-dependent manner
dose effective for tumor regression (GIST-T1/GPR20 cells [2]; single intravenous dose on Day 17, FIG. 32): ≥ 1 mg/kg
tumor volume (GIST020): remarkably decreased tumor volume
tumor volume (GIST1): remarkably decreased tumor volume
